Screen size: about 310,000 compounds; about 2,200 (0.71%) showed an effect of 50% or more. The effect is printed as a negative number. The list shows a part of the results.
molecular target: human ether-à-go-go-related gene (hERG) potassium channel (human, UniProt Q12809); assay: primary screen, population patch clamp on CHO cells stably expressing hERG
Sequence (Q12809 whole entry, looked up): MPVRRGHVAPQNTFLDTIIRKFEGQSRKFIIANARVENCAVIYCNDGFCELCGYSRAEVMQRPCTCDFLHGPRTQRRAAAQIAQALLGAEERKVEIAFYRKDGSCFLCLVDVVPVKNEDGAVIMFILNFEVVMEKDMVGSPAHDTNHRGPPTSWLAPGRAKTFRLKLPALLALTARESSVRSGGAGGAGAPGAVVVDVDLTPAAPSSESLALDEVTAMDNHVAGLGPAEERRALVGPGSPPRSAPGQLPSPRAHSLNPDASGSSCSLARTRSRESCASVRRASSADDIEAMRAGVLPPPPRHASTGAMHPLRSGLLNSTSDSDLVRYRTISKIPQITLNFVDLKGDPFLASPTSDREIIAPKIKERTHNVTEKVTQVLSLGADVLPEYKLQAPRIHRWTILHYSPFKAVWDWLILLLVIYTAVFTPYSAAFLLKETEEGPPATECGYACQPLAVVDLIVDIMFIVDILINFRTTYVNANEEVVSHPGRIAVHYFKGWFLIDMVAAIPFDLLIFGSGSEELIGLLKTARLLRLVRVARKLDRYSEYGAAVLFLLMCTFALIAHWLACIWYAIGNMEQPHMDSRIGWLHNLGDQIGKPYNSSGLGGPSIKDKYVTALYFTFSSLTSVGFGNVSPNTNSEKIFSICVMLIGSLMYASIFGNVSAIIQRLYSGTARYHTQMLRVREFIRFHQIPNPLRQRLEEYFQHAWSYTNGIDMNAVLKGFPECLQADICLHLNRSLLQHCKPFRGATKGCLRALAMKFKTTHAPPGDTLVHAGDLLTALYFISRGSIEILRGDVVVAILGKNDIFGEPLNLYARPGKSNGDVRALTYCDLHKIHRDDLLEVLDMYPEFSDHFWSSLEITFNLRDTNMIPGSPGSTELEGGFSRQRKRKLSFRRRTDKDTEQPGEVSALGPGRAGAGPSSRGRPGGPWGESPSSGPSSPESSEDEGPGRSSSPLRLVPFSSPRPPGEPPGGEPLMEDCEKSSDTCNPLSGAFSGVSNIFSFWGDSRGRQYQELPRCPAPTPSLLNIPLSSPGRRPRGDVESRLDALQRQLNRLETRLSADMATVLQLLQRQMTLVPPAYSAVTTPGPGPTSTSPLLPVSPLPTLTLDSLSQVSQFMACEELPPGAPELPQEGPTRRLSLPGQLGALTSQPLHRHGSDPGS

Compound	hERG current change (%, negative = inhibition) at 1uM [%]
COc1cccc(C=O)c1OC(=O)N1CCOCC1	17.8
CCN(CC)c1ccc(NC(=O)c2cccc(C)c2OC)c(C)c1	8.91
COCCCN(C(=O)c1cccnc1SC)c1c(N)n(Cc2ccccc2)c(=O)[nH]c1=O	-6.78
O=C1COc2ccc(C(=O)COC(=O)COc3ccccc3[N+](=O)[O-])cc2N1	10.9
COc1ccc(-c2cc3ccccc3n2CC(O)CNC(CO)(CO)CO)cc1 (stereo not shown)	6.61
O=C(c1ccco1)N1CCN(c2ccc(N3CCCCC3)nn2)CC1	-3.9
Cn1c(=O)c2c(nc(Sc3ncnn3CC(=O)NC(C)(C)C)n2C)n(C)c1=O	20.5
COc1ccc(Nc2c([N+](=O)[O-])ccc3c2=NC2(CCCCC2)N=3)cc1	10.8
NC(=S)c1cn(C2OC(CO)C(O)C2O)c2ncnc(N)c12 (stereo not shown)	20
Nc1c(C(=O)NCCc2ccccc2)nnn1Cc1ccccc1	1.46
Nc1ccc2cn[nH]c2c1	18.8
CS(=O)(=O)c1ccc(Cl)c(NC(=O)Cc2ccccc2F)c1	13.5
O=C(NCCCN1CCN(Cc2ccccc2)CC1)C1CCN(c2nnc(-n3cccc3)s2)CC1	-10.7
CC/C(CC(c1ccccc1)c1c(O)c2ccccc2oc1=O)=N\NC(N)=S (stereo not shown)	10.5
COc1ccccc1Nc1c([N+](=O)[O-])cncc1[N+](=O)[O-]	10.6
CCn1c(CNC(=O)COc2ccc(C(C)C)cc2)nnc1SCC(=O)Nc1ccc(F)cc1	-27.9
O=C(Cn1cnc2ccccc21)Nc1ccc(C(=O)O)cc1.O=C(O)C(=O)O	-52.9
CCN=C1NN=C(c2ccc(C)cc2)CS1	11
O=[N+]([O-])c1ccc(NC(=S)N2CCN(S(=O)(=O)c3ccccc3)CC2)cc1	7.5
CCNC(=O)COC(=O)c1sccc1C	6.81
Cc1ccc(C)c(N(CC(=O)NC2CCCC2)C(=O)c2cc3cc4cccc(C)c4nc3s2)c1	10.6
CCOC(=O)N1CCN(C(=O)C2CCN(S(=O)(=O)N3CCCC3)CC2)CC1	10.6

Compound	hERG current change (%, negative = inhibition) at 1uM [%]
COC(=O)c1sccc1Oc1ccc(Cl)cc1N1C(=O)CCC1=O	8.78
Cc1nnc(SCC(=O)N/N=C/c2cn(-c3ccccc3)nc2-c2ccc(F)cc2)n1-c1ccccc1	10.3
COC(=O)c1cccc(NS(=O)(=O)c2ccc(NC(C)=O)cc2)c1C	1.99
C=CCn1c(NCCOC)nc2c1c(=O)n(C)c(=O)n2C	8.26
Cc1cc(NS(=O)(=O)c2ccc(NC(=O)c3c(F)c(F)c(F)c(F)c3F)cc2)nc(C)n1	2.59
Cc1nn(Cc2ccc(C(=O)Nc3ccccc3F)cc2)c(C)c1Cl	4.93
COc1ccc(S(=O)(=O)N2CCCCC2)cc1NC(=O)CCCNC(=O)c1ccc(Cl)cc1	3.95
CCNC(=S)N/N=C/c1cccs1	-0.224
O=C1CC(c2ccccc2)n2nc(NC(=O)c3cccs3)nc2N1 (stereo not shown)	6.55
Cc1[nH]c2ccccc2c1C(=O)COC(=O)c1nccnc1N	3.32
COC(=O)c1ccc(Cl)c(NC(=O)CN2CCC(C)CC2)c1	4.29
Cc1cc(C=C2C(=O)N(C)C(=S)N(C)C2=O)c(C)n1C1CCCC1	15.3
C=CCn1c(SCC(=O)NC2CC2)nc2ccccc2c1=O	8.88
COc1ccc(-c2c(=O)n(OCc3nc4ccccc4[nH]3)c3ccccc3[n+]2[O-])cc1	11.8
Cc1ccc(NC(=O)COC(=O)c2cc(-c3cccs3)nn2-c2ccccc2)cc1[N+](=O)[O-]	5.16
CCOc1ccc(NC(=O)c2ccc3c(c2)CCN3S(C)(=O)=O)cc1	4.9
COc1ccc(-c2nnc(SCC(=O)N/N=C/c3ccccc3C(=O)O)n2-c2ccc(Cl)cc2)cc1	5.3
CCOC(=O)c1c(NC(=S)NCCc2ccccc2)sc2c1CC(C(C)C)OC2 (stereo not shown)	13.2
O=C(Nc1ccccc1C(F)(F)F)N1CCCC(O)C1 (stereo not shown)	14.3
CCN(CC)S(=O)(=O)c1cc(NC(=O)C(C)N2CCc3ccccc32)ccc1C (stereo not shown)	9.99
Cc1[nH]nc(N=CC2=C(O)CC(c3ccco3)CC2=O)c1-c1ccc(Cl)cc1 (stereo not shown)	-4.69
CC(NC(=O)Cn1cnnn1)C12CC3CC(CC(C3)C1)C2 (stereo not shown)	1.62

Compound	hERG current change (%, negative = inhibition) at 1uM [%]
COC(=O)CNC(=O)COC(=O)Cc1ccc(Cl)cc1	9.85
COc1cccc(CC2(CO)CCCN(CC3=Cc4cc(OC)ccc4OC3)C2)c1 (stereo not shown)	10.7
CN(C)CC1CCCCC1OC(=O)c1ccc(Br)cc1.Cl (stereo not shown)	4.55
O=c1cc(COc2ccccc2[N+](=O)[O-])nc2sccn12	1.54
COC(=O)c1ccc2c(CCO)c[nH]c2c1	7.07
COc1ccc(-c2ccc3oc(-c4ccc(OC)cc4)c(-c4ccc(OC)cc4)c3c2)cc1	21.7
Cc1ccc(Cn2nc(C)c(NC(=O)c3nn(C)cc3Cl)c2C)cc1	11
O=C(O)CNS(=O)(=O)c1ccc(C2CCCCC2)cc1	3.45
CC(C)C(NC(=O)c1ccc(C(C)(C)C)cc1)C(=O)O (stereo not shown)	-1.71
Cc1c(C(=O)Nc2ccccc2)oc2c1C(=O)CC(C)(C)C2	3.05
COc1ccc(N(C(=O)c2ccco2)C(C(=O)NC2CCCC2)c2cc(OC)c(OC)c(OC)c2)cc1 (stereo not shown)	13.1
CC(C)(O)C#Cc1ccc(C(=O)Nc2ccc3c(c2)OCO3)s1	19.2
O=C1NN(c2ccc(Cl)c(Cl)c2)C(=O)/C1=C/c1cccc(OC(=O)c2cccs2)c1	18.8
C/C(=C\c1ccccc1)CN1CCN(C(C)C)C(CCO)C1 (stereo not shown)	2.77
O=[N+]([O-])c1cc(Br)cc(/C=N/n2cnnc2)c1O	14.3
COc1cc(/C=N/NC(=O)CC2(C)OCCCO2)ccc1OCc1ccc(Cl)cc1Cl	8.41
CN(Cc1ccccc1)C(=O)CCNS(=O)(=O)c1ccc2c(c1)oc(=O)n2C	-0.783
CCN(CC)CCCOC(=O)C1(c2ccccc2)CCCC1	-4.91
C=CCN1C(=O)c2ccc(C(=O)OCC(=O)Nc3ccccc3OC)cc2C1=O	6.4
COC(=O)c1c(NC(=O)C(=O)NCC2CCCO2)sc2c1CC(C)(C)OC2 (stereo not shown)	49.5
O=C(Cc1cccs1)NNC(=S)NC(=O)c1ccccc1	12.9
O=C(/C=C/c1ccc(Br)cc1)NC(=S)N1CCOCC1	12.8

Compound	hERG current change (%, negative = inhibition) at 1uM [%]
CC(OC(=O)CNC(=O)c1ccc2c(c1)OCO2)C(=O)NCCC1=CCCCC1 (stereo not shown)	2.22
COc1ccc(N(CC(=O)O)S(=O)(=O)c2ccc(OC)c(OC)c2)cc1	2.5
CCNC(=S)NNC(=O)c1cc(-c2cccc(OCC)c2)nc2ccccc12	-5.51
CCn1cc(C2=NOC(C(=O)O)C2)c(C)n1 (stereo not shown)	-6.47
CC(C)(C)c1ccc(S(=O)(=O)NNC(=O)c2cc3ccccc3[nH]2)cc1	11.4
Cc1ccc(C(=O)N2CCN(C(=O)c3ccccc3)C2c2ccc(N(C)C)cc2)cc1 (stereo not shown)	4.38
CC1(C(=O)NCCc2c[nH]c3ccccc23)C=CCN1C(=O)c1ccccc1 (stereo not shown)	3.34
COc1ccccc1C1N=C(c2ccccc2C)NO1 (stereo not shown)	14.4
CC(=O)Nc1ccc(S(=O)(=O)NC(C)c2ccncc2)cc1 (stereo not shown)	3.61
COc1ccc(OCC(O)CN2CC(C)OC(C)C2)cc1.Cl (stereo not shown)	14.5
CN(C)C(=O)c1ccccc1NC(=O)Cc1cccc2ccccc12	18.3
Cc1onc(-c2c(F)cccc2Cl)c1C(=O)N1CCN(c2ncccn2)CC1	-6.59
Cc1cccc(C)c1NC(=O)COC(=O)c1ccccc1O	9.37
COc1ccc(N2CCN(C(=O)CCC(=O)NNc3nc4ccccc4c4nc(C)nn34)CC2)cc1	1.69
C/C(=N\Nc1ccc(C(=O)O)cc1)c1ccc(-n2ccnc2)cc1.O=S(=O)(O)O	5.91
COc1ccc(OC)c(/C=C/C(=O)NC2=NCCS2)c1	7.05
O=C(O)c1nnn(-c2cc(C(F)(F)F)cc(C(F)(F)F)c2)c1-c1ccccc1	11.1
NC(=O)COC(=O)/C=C/c1ccc(S(=O)(=O)N2CCCCCC2)cc1	9.9
COc1ccc(CNC(=O)C(C)N2C(=O)COc3ccc(C)cc32)c(OC)c1 (stereo not shown)	10.4
CCCN1Cc2cccc(C(=O)NCCc3ccccc3)c2C1=O	11.4
CCCCC(CC)C(=O)NCCc1ccc(S(N)(=O)=O)cc1 (stereo not shown)	7.34
O=c1cc(O)nc(SCc2ccccc2Cl)[nH]1	12

— publication PMC4336329 (PLoS ONE, 2015)
